Assay results reported in PubChem BioAssay (NCI).
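Where inhibition never reached the appropriate level, the endpoint shown equals the highest concentration tested. Otherwise, values were interpolated linearly from a five-concentration, 48-hour dose response in 96-well plates. At the GI50, growth is halved.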 A number of entries come with more than one value. Only these are listed. An entry can have further records. For some assays here: The tests behind the records often covered other concentration ranges, which the source does not state; a value can be the end of its range. For some assays here: Values that stand side by side are repeated measurements across runs, samples, wells, individuals or studies. Brackets tell where a record comes from. A, B and so on number the origins entry by entry.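 TGI denotes the concentration required for complete inhibition of growth.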 *1 amine or outer side, *2 acyl side, *3 side chain or, on linkers, in order; H or OH if unused. Where a SMILES comes first, the peptide text is derived from it. Bridges are numbered along the chain shown (N, C = ends). Roman numbers before positions name the chains, in order. [ ]: non-standard residue; d: D form. Actinocin(9to1) = Cc1c2oc3c(C)ccc(C(=O)[*:1])c3nc-2c(C(=O)[*:2])c(N)c1=O; NMeF = CN[CH](Cc1ccccc1)C(=O)O; Sar = CNCC(=O)O

What was measured:
Assay in all cases: NCI anticancer screen, dose series, 48 h
CCRF-CEM leukemia = system: CCRF-CEM leukemia
HCC-2998 colon = system: HCC-2998 colon
HOP-62 NSCLC = system: HOP-62 NSCLC
LOX IMVI melanoma = system: LOX IMVI melanoma
MALME-3M melanoma = system: MALME-3M melanoma
MOLT-4 leukemia = system: MOLT-4 leukemia
NCI-H522 lung = system: NCI-H522 lung
SK-MEL-2 melanoma = system: SK-MEL-2 melanoma
SNB-19 CNS = system: SNB-19 CNS
SW-620 colon = system: SW-620 colon
U251 CNS = system: U251 CNS
NCI-H460 lung = system: NCI-H460 lung
RXF 393 renal = system: RXF 393 renal
UACC-257 melanoma = system: UACC-257 melanoma
A549 NSCLC = system: A549 NSCLC
IGROV1 ovarian = system: IGROV1 ovarian
K-562 leukemia = system: K-562 leukemia
NCI-H226 lung = system: NCI-H226 lung
NCI-H23 lung = system: NCI-H23 lung
NCI/ADR-RES ovarian = system: NCI/ADR-RES ovarian
RPMI-8226 leukemia = system: RPMI-8226 leukemia
HT29 colon = system: HT29 colon
KM12 colon = system: KM12 colon
MDA-MB-231 breast = system: MDA-MB-231 breast
SK-OV-3 ovarian = system: SK-OV-3 ovarian
SN12C renal = system: SN12C renal
UO-31 renal = system: UO-31 renal

CNCCN=c1ccc2c3c1c(O)c1c(O)ccc(=O)c1c3[nH]n2CCNCCO
GI50 (CCRF-CEM leukemia): 71.7 nM [mean of 2 tests] and 0.999 nM [mean of 5 tests] and 32.5 nM [mean of 8 tests]
TGI (CCRF-CEM leukemia): 14.3 µM [mean of 2 tests] and 937 nM [mean of 8 tests]
GI50 (HCC-2998 colon): 577 nM [mean of 4 tests] and 0.672 nM [mean of 5 tests]
GI50 (HOP-62 NSCLC): 62.6 nM [mean of 3 tests] and 0.482 nM [mean of 5 tests]
TGI (HOP-62 NSCLC): 0.874 nM, 117 nM, 113 nM
TGI (LOX IMVI melanoma): 67.7 µM [mean of 4 tests] and 3.36 µM [mean of 5 tests]
TGI (MALME-3M melanoma): 1.77 µM [1 test] and 0.346 nM [mean of 4 tests] and 3.27 µM [mean of 8 tests]
GI50 (MOLT-4 leukemia): 122 nM [mean of 3 tests] and 0.921 nM, 18.4 nM [mean of 5 tests]
TGI (MOLT-4 leukemia): 4.07 µM [mean of 3 tests] and 77.3 nM [mean of 5 tests]
TGI (NCI-H522 lung): 29.8 µM [mean of 2 tests] and 1.53 µM [mean of 8 tests]
GI50 (SK-MEL-2 melanoma): 693 nM [mean of 2 tests] and 0.119 nM [mean of 3 tests] and 2.05 µM [mean of 6 tests]
TGI (SK-MEL-2 melanoma): 1.71 µM [mean of 2 tests] and 0.163 nM [mean of 3 tests] and 4.16 µM [mean of 6 tests]
TGI (SNB-19 CNS): 23.5 µM [mean of 3 tests] and 845 nM [mean of 9 tests]
TGI (SW-620 colon): 4.62 µM, 5.93 µM, 5 mM
GI50 (U251 CNS): 22 nM [mean of 10 tests] and 0.989 nM [mean of 4 tests]

C/C=C(/C)C(=O)O[C@H]1[C@H](O)CC(c2ccc3c(c2O)C(O)=C2C(=O)C4(OC)C(O)=C(C(N)=O)C(=O)[C@H](CC(=O)c5ccccc5O)C4CC2[C@@]3(C)OC)O[C@@H]1C (stereo partly drawn)
TGI (HOP-62 NSCLC): 1.01 µM and 93.6 nM
TGI (NCI-H460 lung): 1.03 µM and 88.1 nM
TGI (RXF 393 renal): 1.56 µM and 134 nM
TGI (UACC-257 melanoma): 76.8 nM and 1.39 µM

CN(C)/N=N/c1nc[nH]c1C(N)=O
TGI (A549 NSCLC): 99.7 µM and > 1 mM
TGI (HOP-62 NSCLC): 84.7 µM and > 861 µM
TGI (IGROV1 ovarian): 78.3 µM and > 1 mM
TGI (K-562 leukemia): 80.4 µM and > 1 mM
TGI (MOLT-4 leukemia): 79.8 µM and > 911 µM
TGI (NCI-H226 lung): 99.7 µM and > 1 mM
TGI (NCI-H23 lung): 99.4 µM and > 1 mM
TGI (NCI/ADR-RES ovarian): 99.7 µM and > 1 mM
TGI (RPMI-8226 leukemia): 90.4 µM and > 1 mM

Cc1c2oc3c(C)ccc(C(=O)NC4C(=O)NC(C(C)C)C(=O)N5CCCC5C(=O)N(C)CC(=O)N(C)C(Cc5ccccc5)C(=O)OC4C)c3nc-2c(C(=O)NC2C(=O)NC(C(C)C)C(=O)N3CCCC3C(=O)N(C)CC(=O)N(C)C(Cc3ccccc3)C(=O)OC2C)c(N)c1=O (stereo not drawn) (I: TVP[Sar][NMeF] / II: TVP[Sar][NMeF]; ester I:1-I:C, II:1-II:C; linker I:N-II:N via Actinocin(9to1); configuration not given here)
TGI (HT29 colon): 2.51 µM [sample A, 1 test] and 29.6 nM [sample B, mean of 2 tests]
TGI (IGROV1 ovarian): < 10 nM [sample A, mean of 2 tests] and > 1 µM [sample B, 1 test]
TGI (KM12 colon): < 10 nM [sample A] and 307 nM [sample B]
TGI (MDA-MB-231 breast): < 10 nM [sample A, 1 test] and > 435 nM [sample B, mean of 2 tests]
TGI (NCI-H226 lung): < 10 nM [sample A] and > 203 nM [sample B]
GI50 (NCI/ADR-RES ovarian): < 20.4 nM [sample A, mean of 2 tests] and 355 nM [sample B, mean of 2 tests]
TGI (SK-OV-3 ovarian): < 18.7 nM [sample A] and > 267 nM [sample B]
TGI (SN12C renal): < 10 nM [sample A, 1 test] and 126 nM [sample B, mean of 2 tests]
TGI (UACC-257 melanoma): < 10 nM [sample A] and 127 nM [sample B]
TGI (UO-31 renal): < 11.8 nM [sample A, mean of 2 tests] and 446 nM [sample B, mean of 2 tests]
